{"source": "the supplement of paper PMC8728848", "assay_in_all_cases": "glycan array binding signal (z-score within array); higher = stronger binding", "conditions_in_all_cases": "glycan notation: IUPAC condensed, linker removed", "key": {"[1]": {"molecular_target": "GlcNAc(b1-3)Gal(b1-4)GlcNAc(b1-3)GalNAc", "how_it_was_run": "(§1)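 From the Consortium for Functional Glycomics database, 3228 arrays were curated, keeping only those whose protein sequence was available. Binding is given as a within-array Z-score averaged across arrays sharing a protein sequence and across linkers. Negative Z-scores can be read as non-binding.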"}, "[2]": {"molecular_target": "GlcNAc(b1-3)Gal(b1-4)GlcNAc(b1-3)[GlcNAc(b1-3)Gal(b1-4)GlcNAc(b1-3)]GalNAc", "how_it_was_run": "as §1"}, "[3]": {"molecular_target": "GlcNAc(b1-3)Gal(b1-4)GlcNAc(b1-6)[Gal(b1-3)]GalNAc", "how_it_was_run": "as §1"}, "[4]": {"molecular_target": "GlcNAc(b1-3)Gal(b1-4)GlcNAc(b1-6)[GlcNAc(b1-3)Gal(b1-3)]GalNAc", "how_it_was_run": "as §1"}, "[5]": {"molecular_target": "GlcNAc(b1-3)Gal(b1-4)GlcNAc(b1-6)[GlcNAc(b1-3)]Gal(b1-4)GlcNAc", "how_it_was_run": "as §1"}, "GlcNAc(b1-3)GalNAc": {"molecular_target": "GlcNAc(b1-3)GalNAc", "how_it_was_run": "as §1"}, "GlcNAc(b1-3)Man": {"molecular_target": "GlcNAc(b1-3)Man", "how_it_was_run": "as §1"}, "[6]": {"molecular_target": "GlcNAc(b1-3)[GlcNAc(b1-4)][GlcNAc(b1-6)]GlcNAc", "how_it_was_run": "as §1"}, "[7]": {"molecular_target": "GlcNAc(b1-3)[GlcNAc(b1-6)]Gal(b1-4)GlcNAc", "how_it_was_run": "as §1"}, "[8]": {"molecular_target": "GlcNAc(b1-3)[GlcNAc(b1-6)]GalNAc", "how_it_was_run": "as §1"}, "[9]": {"molecular_target": "GlcNAc(b1-4)Gal(b1-4)GlcNAc", "how_it_was_run": "as §1"}, "GlcNAc(b1-4)GlcNAc": {"molecular_target": "GlcNAc(b1-4)GlcNAc", "how_it_was_run": "as §1"}, "[10]": {"molecular_target": "GlcNAc(b1-4)GlcNAc(b1-4)GlcNAc", "how_it_was_run": "as §1"}, "[11]": {"molecular_target": "GlcNAc(b1-4)GlcNAc(b1-4)GlcNAc(b1-4)GlcNAc(b1-4)GlcNAc", "how_it_was_run": "as §1"}, "[12]": {"molecular_target": "GlcNAc(b1-4)GlcNAc(b1-4)GlcNAc(b1-4)GlcNAc(b1-4)GlcNAc(b1-4)GlcNAc", "how_it_was_run": "as §1"}, "[13]": {"molecular_target": "GlcNAc(b1-4)[GlcNAc(b1-6)]GalNAc", "how_it_was_run": "as §1"}, "[14]": {"molecular_target": "GlcNAc(b1-6)Gal(b1-4)GlcNAc", "how_it_was_run": "as §1"}, "GlcNAc(b1-6)GalNAc": {"molecular_target": "GlcNAc(b1-6)GalNAc", "how_it_was_run": "as §1"}, "[15]": {"molecular_target": "GlcNAc6S(b1-3)Gal(b1-4)GlcNAc", "how_it_was_run": "as §1"}, "Kdn(a2-3)Gal(b1-3)GalNAc": {"molecular_target": "Kdn(a2-3)Gal(b1-3)GalNAc", "how_it_was_run": "as §1"}, "Kdn(a2-3)Gal(b1-3)GlcNAc": {"molecular_target": "Kdn(a2-3)Gal(b1-3)GlcNAc", "how_it_was_run": "as §1"}, "Kdn(a2-3)Gal(b1-4)Glc": {"molecular_target": "Kdn(a2-3)Gal(b1-4)Glc", "how_it_was_run": "as §1"}, "Kdn(a2-3)Gal(b1-4)GlcNAc": {"molecular_target": "Kdn(a2-3)Gal(b1-4)GlcNAc", "how_it_was_run": "as §1"}, "[16]": {"molecular_target": "Kdn(a2-3)Gal(b1-4)[Fuc(a1-3)]GlcNAc", "how_it_was_run": "as §1"}, "Kdn(a2-6)Gal(b1-4)GlcNAc": {"molecular_target": "Kdn(a2-6)Gal(b1-4)GlcNAc", "how_it_was_run": "as §1"}, "[17]": {"molecular_target": "Man(a1-2)Man(a1-2)Man(a1-3)Man", "how_it_was_run": "as §1"}, "[18]": {"molecular_target": "Man(a1-2)Man(a1-2)Man(a1-6)[Man(a1-3)]Man", "how_it_was_run": "as §1"}, "Man(a1-2)Man(a1-3)Man": {"molecular_target": "Man(a1-2)Man(a1-3)Man", "how_it_was_run": "as §1"}, "[19]": {"molecular_target": "Man(a1-2)Man(a1-3)[Man(a1-2)Man(a1-6)]Man", "how_it_was_run": "as §1"}, "[20]": {"molecular_target": "Man(a1-2)Man(a1-3)[Man(a1-2)Man(a1-6)]Man(a1-6)[Man(a1-2)Man(a1-2)Man(a1-3)]Man", "how_it_was_run": "as §1"}, "[21]": {"molecular_target": "Man(a1-2)Man(a1-3)[Man(a1-2)Man(a1-6)]Man(a1-6)[Man(a1-2)Man(a1-2)Man(a1-3)]Man(b1-4)GlcNAc(b1-4)GlcNAc", "how_it_was_run": "as §1"}, "[22]": {"molecular_target": "Man(a1-2)Man(a1-3)[Man(a1-6)]Man(a1-6)[Man(a1-2)Man(a1-3)]Man(b1-4)GlcNAc(b1-4)GlcNAc", "how_it_was_run": "as §1"}, "[23]": {"molecular_target": "Man(a1-2)Man(a1-6)[Man(a1-3)]Man(a1-6)[Man(a1-2)Man(a1-2)Man(a1-3)]Man", "how_it_was_run": "as §1"}, "[24]": {"molecular_target": "Man(a1-2)Man(a1-6)[Man(a1-3)]Man(a1-6)[Man(a1-2)Man(a1-2)Man(a1-3)]Man(b1-4)GlcNAc(b1-4)GlcNAc", "how_it_was_run": "as §1"}, "Man(a1-3)[Man(a1-6)]Man": {"molecular_target": "Man(a1-3)[Man(a1-6)]Man", "how_it_was_run": "as §1"}, "[25]": {"molecular_target": "Man(a1-3)[Man(a1-6)]Man(a1-6)[Man(a1-2)Man(a1-3)]Man(b1-4)GlcNAc(b1-4)GlcNAc", "how_it_was_run": "as §1"}, "[26]": {"molecular_target": "Man(a1-3)[Man(a1-6)]Man(a1-6)[Man(a1-3)]Man", "how_it_was_run": "as §1"}}, "note": "The other results are listed elsewhere or left out."}
{"binder": "ACA (Amaranthus caudatus) (protein) MAGLPVIMCLKSNNNQKYLRYQSDNIQQYGLLQFSADKILDPLAQFEVEPSKTYDGLVHIKSRYTNKYLVRWSPNHYWITASANEPDENKSNWACTLFKPLYVEEGNMKKVRLLHVQLGHYTQNYTVGGSFVSYLFAESSQIDTGSKDVFHVIDWKSIFQFPKRYVTFKGNNGKYLGVITINQLPCLQFGYDNLNDPKVAHEMFVTSNGTICIKSTYMNKFWRLSTDDWILVDGNDPRETNEAAALFRSDVHDFNVISLLNMQKTWFIKRFTSGKPGFINCMNAATQNVDETAILEIIELGSNN", "values": [{"measurement": "glycan array binding signal (z-score)", "setting": "[1]", "result": -0.527}, {"measurement": "glycan array binding signal (z-score)", "setting": "[2]", "result": -0.435}, {"measurement": "glycan array binding signal (z-score)", "setting": "[3]", "result": -0.076}, {"measurement": "glycan array binding signal (z-score)", "setting": "[4]", "result": -0.475}, {"measurement": "glycan array binding signal (z-score)", "setting": "[5]", "result": -0.004}, {"measurement": "glycan array binding signal (z-score)", "setting": "GlcNAc(b1-3)GalNAc", "result": -0.167}, {"measurement": "glycan array binding signal (z-score)", "setting": "GlcNAc(b1-3)Man", "result": -0.096}, {"measurement": "glycan array binding signal (z-score)", "setting": "[6]", "result": -0.364}, {"measurement": "glycan array binding signal (z-score)", "setting": "[7]", "result": -0.519}, {"measurement": "glycan array binding signal (z-score)", "setting": "[8]", "result": -0.183}, {"measurement": "glycan array binding signal (z-score)", "setting": "[9]", "result": -0.887}, {"measurement": "glycan array binding signal (z-score)", "setting": "GlcNAc(b1-4)GlcNAc", "result": 0.151}, {"measurement": "glycan array binding signal (z-score)", "setting": "[10]", "result": -0.316}, {"measurement": "glycan array binding signal (z-score)", "setting": "[11]", "result": -0.138}, {"measurement": "glycan array binding signal (z-score)", "setting": "[12]", "result": -0.162}, {"measurement": "glycan array binding signal (z-score)", "setting": "[13]", "result": -0.14}, {"measurement": "glycan array binding signal (z-score)", "setting": "[14]", "result": -0.137}, {"measurement": "glycan array binding signal (z-score)", "setting": "GlcNAc(b1-6)GalNAc", "result": -0.116}, {"measurement": "glycan array binding signal (z-score)", "setting": "[15]", "result": -0.092}, {"measurement": "glycan array binding signal (z-score)", "setting": "Kdn(a2-3)Gal(b1-3)GalNAc", "result": 1.78}, {"measurement": "glycan array binding signal (z-score)", "setting": "Kdn(a2-3)Gal(b1-3)GlcNAc", "result": 0.132}, {"measurement": "glycan array binding signal (z-score)", "setting": "Kdn(a2-3)Gal(b1-4)Glc", "result": -0.204}, {"measurement": "glycan array binding signal (z-score)", "setting": "Kdn(a2-3)Gal(b1-4)GlcNAc", "result": -0.428}, {"measurement": "glycan array binding signal (z-score)", "setting": "[16]", "result": -0.028}, {"measurement": "glycan array binding signal (z-score)", "setting": "Kdn(a2-6)Gal(b1-4)GlcNAc", "result": 0.346}, {"measurement": "glycan array binding signal (z-score)", "setting": "[17]", "result": -0.428}, {"measurement": "glycan array binding signal (z-score)", "setting": "[18]", "result": -0.246}, {"measurement": "glycan array binding signal (z-score)", "setting": "Man(a1-2)Man(a1-3)Man", "result": -0.183}, {"measurement": "glycan array binding signal (z-score)", "setting": "[19]", "result": -0.25}, {"measurement": "glycan array binding signal (z-score)", "setting": "[20]", "result": -0.266}, {"measurement": "glycan array binding signal (z-score)", "setting": "[21]", "result": 0.478}, {"measurement": "glycan array binding signal (z-score)", "setting": "[22]", "result": -0.324}, {"measurement": "glycan array binding signal (z-score)", "setting": "[23]", "result": -0.199}, {"measurement": "glycan array binding signal (z-score)", "setting": "[24]", "result": -0.196}, {"measurement": "glycan array binding signal (z-score)", "setting": "Man(a1-3)[Man(a1-6)]Man", "result": 0.164}, {"measurement": "glycan array binding signal (z-score)", "setting": "[25]", "result": 6.44}, {"measurement": "glycan array binding signal (z-score)", "setting": "[26]", "result": -0.288}]}
